{"source": "the supplement of paper PMC11417369", "note": "± gives the standard deviation of the averaged measurements. The list shows a part of the results."}
{"tested_on": "PfAP2-G AP2 domain (GST-tagged)", "experiment": "gcPBM binding intensity (ln(normalized median fluorescence intensity)); higher = stronger DNA binding", "in_short": "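Binding intensity values are the highest Masliner-normalised natural-log median intensity among replicate spots of either probe orientation. The binding step lasted 1 h in 1× PBS with 1% milk, 0.2 mg/ml BSA, 0.5% salmon testes DNA and 0.03% Triton X-100, using GST-tagged P. falciparum DNA-binding domains expressed in E. coli on an Agilent 4 × 180k array of primer-extended double-stranded 36-bp intergenic genomic probes plus negative controls. Alexa488 anti-GST antibody and a 488 nm scan detected bound protein.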"}
{"sequence": "ATATTTAGAATGTTCCTACACACCAAATTTAAGTGG [CACACA_site2346]", "gcPBM binding intensity (ln)": "10.2 ± 0.18"}
{"sequence": "TTTATTTTACAAAAAAGTACAAGAAGAAATATCAAT [XGTACX_site7812]", "gcPBM binding intensity (ln)": "11.3 ± 0.89"}
{"sequence": "TCAATATACCAAAAATGTACAAAAAATAAACAATAT [XGTACX_site8251]", "gcPBM binding intensity (ln)": "10.8 ± 0.49"}
{"sequence": "GAACATTTCACATGGTGTACTCTCTTTTTCAAATAA [XGTACX_site1632]", "gcPBM binding intensity (ln)": "11.6 ± 1.1"}
{"sequence": "AATGATATATTATAAACACACAAAGATGGATATATA [CACACA_site7349]", "gcPBM binding intensity (ln)": "9.87 ± 0.13"}
{"sequence": "TTATATATAAATGAAAGTACAAAACAGGAAAGAATA [XGTACX_site1076]", "gcPBM binding intensity (ln)": "11 ± 0.49"}
{"sequence": "ATATATAATATATGTGGTACGCAAAATATTATATTA [XGTACX_site4969]", "gcPBM binding intensity (ln)": "11.4 ± 0.95"}
{"sequence": "AATACACGCAAACACACACACACACCCACATATATA [CACACA_site638]", "gcPBM binding intensity (ln)": "10.3 ± 0.2"}
{"sequence": "AAAACACAATTTATTACACACATATATTATATATTA [CACACA_site1420]", "gcPBM binding intensity (ln)": "9.86 ± 0.057"}
{"sequence": "ATGAATGAATAAAGAAGTACGGAAATATTAACAAAA [XGTACX_site4695]", "gcPBM binding intensity (ln)": "11.2 ± 0.67"}
{"sequence": "TTCTTCTGTTTTATTACACACCATTTTGTGTCTACA [CACACA_site8643]", "gcPBM binding intensity (ln)": "10.2 ± 0.17"}
{"sequence": "CTCTATATATTATTATGTACTAAATGTATGTATGTA [XGTACX_site7151]", "gcPBM binding intensity (ln)": "10.9 ± 0.48"}
{"sequence": "ATAACATACATAACAACACACAATATTTATCTGTAT [CACACA_site4279]", "gcPBM binding intensity (ln)": "9.96 ± 0.24"}
{"sequence": "TTCATTCAAATCCAAGCATGCTTTATTAAAAAATTA [TGCATGCA_site567]", "gcPBM binding intensity (ln)": "9.84 ± 0.26"}
{"sequence": "ATATATAATTCCCAAGTGCATTTATTTTAATTATTA", "gcPBM binding intensity (ln)": "9.945 ± 0.007"}
{"sequence": "TGTGAAATAAAATTTGTACACACATATATATATATA [CACACA_site8093]", "gcPBM binding intensity (ln)": "11.1 ± 0.73"}
{"sequence": "TACGCCTATAACGGCTGTACACCTTACTTTTTTTAA [XGTACX_site6818]", "gcPBM binding intensity (ln)": "11.5 ± 0.79"}
{"sequence": "TATGATTTTTATATATGTACGTATGGTGTTTTACAA [XGTACX_site6100]", "gcPBM binding intensity (ln)": "11.3 ± 0.53"}
{"sequence": "AATAAATTTCAAAATTGTACTCATTTCCTTTCCCAA [XGTACX_site5887]", "gcPBM binding intensity (ln)": "11.4 ± 0.93"}
{"sequence": "ATATATATATATATATGTACACATATATTTCTTTTC [XGTACX_site3443]", "gcPBM binding intensity (ln)": "11.4 ± 0.91"}
{"sequence": "ATAAAATTTTATATGGGTACATAATATAATATATAT [XGTACX_site8160]", "gcPBM binding intensity (ln)": "11.4 ± 0.67"}
{"sequence": "AAAAAAAAAAAAAGTGCACACGATTTAAGGCCTATA [CACACA_site2823]", "gcPBM binding intensity (ln)": "10.7 ± 0.6"}
{"sequence": "ATTCCTGGACCGTTCATGCACTTGCAGAACGTCCAT", "gcPBM binding intensity (ln)": "10.7 ± 0.34"}
{"sequence": "TTTATGAAATGTTGCACACAAAAAACAACATGTTTT [CACACA_site1440]", "gcPBM binding intensity (ln)": "10.2 ± 0.21"}
{"sequence": "AAATGATATAAATTATAAAATGGATTTTTTCCATTG [CACACA_negctrl_site420]", "gcPBM binding intensity (ln)": "9.41 ± 0.27"}
{"sequence": "TTTAAAAATTAATTCTGTACACATTTTTATTATATT [XGTACX_site4212]", "gcPBM binding intensity (ln)": "11.5 ± 0.81"}
{"sequence": "TAAGTTTGTCAATCAACACACACCTATTTATTATAT [CACACA_site3919]", "gcPBM binding intensity (ln)": "10.1 ± 0.085"}
{"sequence": "CACTTTAATTTATGCACACATATGGAACAACAGCCA [CACACA_site994]", "gcPBM binding intensity (ln)": "10.5 ± 0.33"}
{"sequence": "CTTAAAATGATAATATGTACACATAAATAATATATA [XGTACX_site8330]", "gcPBM binding intensity (ln)": "11.5 ± 0.76"}
{"sequence": "TTTTTTGACATTCCTTTTAATAATTAACGAAAGGCA [GTGCAC_negctrl_site377]", "gcPBM binding intensity (ln)": "9.94 ± 0.23"}
{"sequence": "ACCATTTGAAAATTCACACACTTTATTTTGTTATAT [CACACA_site5976]", "gcPBM binding intensity (ln)": "10.09 ± 0.057"}
{"sequence": "ACTAATATGCAATATTGTACATATATATAGAAATAT [XGTACX_site5273]", "gcPBM binding intensity (ln)": "10.9 ± 0.59"}
{"sequence": "TATATAATATTACGTTGTACACTTTAATCTCCCTTC [XGTACX_site5577]", "gcPBM binding intensity (ln)": "11.1 ± 0.7"}
{"sequence": "TATAATCAATGCCAAAGTACATATTAATATATTTAT [XGTACX_site4558]", "gcPBM binding intensity (ln)": "10.8 ± 0.52"}
{"sequence": "AATATATCGCATAGTTGTACAGAATTTTTACTTTTA [XGTACX_site8192]", "gcPBM binding intensity (ln)": "11.1 ± 0.71"}
{"sequence": "ATTGAAAAATAAAAATGTACACATGTAGCATACCAT [XGTACX_site3275]", "gcPBM binding intensity (ln)": "11.4 ± 0.65"}
{"sequence": "GAACTAATAATGAAAAGTACACATACACATATATAT [XGTACX_site6789]", "gcPBM binding intensity (ln)": "11.3 ± 0.61"}
{"sequence": "CTACCAAATCTATAGACACACATATATATATATATT [CACACA_site2486]", "gcPBM binding intensity (ln)": "10.02 ± 0.092"}
{"sequence": "AAATGTATACACATGGTGCGTAATATATTATATATA [GTGCAC_site9877]", "gcPBM binding intensity (ln)": "10.2 ± 0.13"}
{"sequence": "AAATACAAGGGACATGCATACCACTATTTTTTAAAT [TGCATGCA_site588]", "gcPBM binding intensity (ln)": "10.4 ± 0.3"}
{"sequence": "TTTATATAATAGTTATGTACTTAAACGAAAGATACA [XGTACX_site8495]", "gcPBM binding intensity (ln)": "11.2 ± 0.61"}
{"sequence": "TATAGAAAATTTATATGTACATATATATATATATAT [XGTACX_site4451]", "gcPBM binding intensity (ln)": "11.4 ± 0.88"}
{"sequence": "TAAAATTTAAGTTATACACACTTAAGTAACATCATC [CACACA_site6395]", "gcPBM binding intensity (ln)": "10.2 ± 0.13"}
{"sequence": "GCATATGTATATAATGTGCACATGGATTATATAAAA", "gcPBM binding intensity (ln)": "10.4 ± 0.27"}
{"sequence": "TATTTACAGACATGCGCACACATAAATAAATAATAG [CACACA_site2411]", "gcPBM binding intensity (ln)": "10.5 ± 0.33"}
